Results from the supplement of paper PMC3724861.
This is one part of the list.

Test system: T1, Caupolican (Caup) homeodomain DNA-binding domain
T1 sequence: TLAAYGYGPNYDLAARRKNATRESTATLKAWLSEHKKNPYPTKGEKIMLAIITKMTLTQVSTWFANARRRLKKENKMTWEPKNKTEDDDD
Assay: PBM E-score (8-mer, recovered from the published 9-mer minima) (E-score (dimensionless, -0.5 to 0.5)); Drosophila protein; higher = stronger relative binding preference, active = 0.31 or more
In short: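 Caup's homeodomain DNA-binding domain (residues 214-303) was made by in vitro transcription and translation and applied at 100 nM to custom-designed protein binding microarrays. Each value is an enrichment score that gives relative binding preference for a short DNA word, with higher meaning stronger. The 8-mer values were recovered from published 9-mer scores, each of which was the minimum of its two constituent 8-mer scores. A cutoff of 0.31 marks candidate sites.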

Sequence | PBM E-score
GGTCTATA | inactive: 0.11
AATACACT | inactive: 0.192
GCCTTTAC | inactive: -0.00546
GGTATTGA | inactive: 0.058
AAATCGTT | inactive: 0.118
CCAGGCAG | inactive: -0.259
CCCTGCCA | inactive: -0.21
CCCGTTTA | inactive: -0.0295
CACCCCAA | inactive: 0.0252
ACAAATAG | inactive: 0.191
TACCTTAA | inactive: -0.0969
GACTATAC | inactive: 0.118
CCGTATAA | inactive: 0.0639
CCGGGGGC | inactive: -0.256
ACAGAGCT | inactive: 0.0369
CAGTCAGA | inactive: -0.00429
ATTAAGAA | inactive: 0.0216
ATCCAGAA | ≥ 0.135
AATAAGGC | inactive: -0.0579
GAGAAATA | inactive: 0.0408
ATCGCCTA | inactive: -0.0684
GGGTACCA | ≥ 0.0519
ACAGAGTA | ≥ 0.116
CAGTCTGA | inactive: -0.0233
ATTCTCCC | inactive: -0.0331

Sequence | PBM E-score
GGACCTCC | inactive: -0.253
GCATTAGC | inactive: -0.144
CGGTCGAA | inactive: -0.0675
AAGTCAAG | inactive: -0.0582
CTTTGAAC | inactive: -0.0716
TCAAACAA | inactive: 0.202
ATGTTCTG | inactive: 0.279
CCATTCCG | inactive: -0.112
AGCGCAAC | inactive: -0.105
CACTTCAC | inactive: 0.0187
CGGATTGC | inactive: -0.0688
AACATGTA | active: ≥ 0.48
AATCTTAT | inactive: 0.0958
ACTTGAGA | inactive: 0.0185
AATGTAGT | inactive: 0.281
TCTACAAA | inactive: 0.218
TGTGTGAA | inactive: 0.14
AGGTGGCG | inactive: -0.0903
ACCTTGGG | inactive: -0.106
AGCAATAC | inactive: 0.0839
ACTTTCCG | inactive: -0.0376
CGTGAGCC | inactive: -0.163
CAGTTCGG | inactive: -0.0674
ATGTGTCG | inactive: 0.262
CACCTCTC | inactive: -0.147

Sequence | PBM E-score
CTAAGATA | inactive: 0.0774
AGTTTATG | inactive: 0.0709
TCATGAAA | inactive: -0.0194
GAGCCGGC | inactive: -0.252
AAAGTTCC | inactive: -0.0598
CACAAATC | inactive: 0.0529
CATTGGTC | inactive: -0.0725
GGGGTGGA | inactive: -0.141
AACGAAAG | inactive: -0.0333
GTTTTCGA | inactive: 0.00741
AGTAGATC | inactive: 0.0726
CTGAGTGA | inactive: 0.0591
AAGTCCCA | inactive: -0.0878
AATATTCA | inactive: 0.152
CAACAGTA | inactive: 0.0987
CGGGACCA | inactive: -0.151
AATTTCAT | inactive: 0.133
CACTGCTG | inactive: -0.106
CATTTGAG | inactive: 0.0594
ATTCCCCG | inactive: -0.0419
GCTGTCGA | inactive: 0.0469
CCCTATCC | inactive: -0.157
CACTTACA | inactive: 0.243
AAAGAAAT | inactive: 0.0689
GGGGCTCA | inactive: -0.244

Sequence | PBM E-score
AAAAAGCG | inactive: -0.101
ACCGACAA | inactive: 0.13
GTAAGGTA | ≥ 0.165
ATTCTACG | inactive: 0.0692
GCGCCGCC | inactive: -0.263
GTGTACTA | active: 0.34
GTCGGAAA | inactive: 0.0805
AATACGGG | inactive: -0.045
CGCCCGTC | inactive: -0.241
AAGACCTA | inactive: -0.037
ACAGCGCC | inactive: -0.0581
CTCGGGTA | inactive: 0.0492
ACAGGTCA | inactive: 0.136
ACCTTCTG | inactive: 0.0175
ATGAGCCG | inactive: -0.122
AGAGTATA | inactive: 0.0771
GAGTTCCC | inactive: -0.1
AAACCCCC | inactive: -0.234
CTATCTCA | inactive: -0.0226
AGACTTTC | inactive: 0.013
ACATAATC | inactive: 0.202
CAAGCTTG | inactive: -0.0318
ATGCCCTG | inactive: -0.0861
CAGTTCTC | inactive: -0.0392
GATGCGTA | inactive: -0.00072

Sequence | PBM E-score
AGAGGAAT | inactive: -0.0742
GTAGACAA | active: 0.313
GCGTATAA | inactive: -0.0488
CATATTCG | inactive: 0.0718
TGAACCAA | inactive: 0.0932
AAATCAAA | inactive: 0.11
ATCGCTAC | inactive: 0.0384
AGTTACCG | inactive: 0.0818
ACGGTATG | inactive: 0.0358
AGTTTGTC | inactive: 0.073
CGCGCTCC | inactive: -0.156
GAGTGCTA | inactive: 0.0592
AACTCCGG | inactive: -0.121
ATCTATAG | inactive: 0.0725
ACATCAAG | inactive: 0.227
CTGATCCA | ≥ 0.0971
GCTATTCC | inactive: -0.026
CGTCCTTA | inactive: -0.0328
GCGGGTCC | inactive: -0.275
GCCCCACA | inactive: -0.178
AAAGAGCG | inactive: -0.0636
AACAAGCC | inactive: 0.176
GAATTGAC | inactive: 0.0767
CCAGGGCG | inactive: -0.254
ATGCCTTG | inactive: 0.0116

Sequence | PBM E-score
CTCCACGA | inactive: -0.149
ACATCTGG | inactive: 0.119
GAAGGAGC | inactive: -0.236
CTGGCTCA | inactive: -0.111
CGTGGGAC | inactive: -0.109
TCGAACAA | inactive: 0.259
AATATAGG | inactive: 0.0868
CTTGTGTA | active: ≥ 0.341
CCGAAAGA | inactive: -0.0463
CGCATCGC | inactive: -0.22
CCCTTCTC | inactive: -0.19
GAATCTCC | inactive: -0.0908
ACCTCCTC | inactive: -0.067
CCGTTCAC | inactive: -0.0842
GAAGGTCA | inactive: -0.0224
CCTACGAA | inactive: -0.0261
CACCGGTG | inactive: -0.117
CGACGGAG | inactive: -0.157
ATTGATGG | inactive: 0.0561
ATCGTCGC | ≥ 0.0107
CAGCGCGG | inactive: -0.0615
CTAGTAAC | inactive: 0.149
GACAATAA | inactive: 0.14
CGACACTC | inactive: 0.0187
ATCCTCCG | inactive: -0.0647

Sequence | PBM E-score
GCGCTCCA | inactive: -0.217
CCTACTCC | inactive: -0.0436
GACCCGCA | inactive: -0.135
GAGGGGAA | inactive: -0.104
CGATTCTC | inactive: -0.0766
ACGTACTA | ≥ 0.193
GGCCCACC | inactive: -0.32
AGACCCCT | inactive: -0.143
ATCAATGA | ≥ 0.193
ATTAAACC | inactive: 0.103
ATTCTTGG | inactive: -0.0305
GGACTTGA | inactive: -0.0246
CGGACGAA | inactive: -0.034
ACGGGCCC | inactive: -0.295
CACGCAGG | inactive: -0.0018
AAGACATC | inactive: 0.159
CGACAGCC | inactive: 0.0551
GTTAATGA | inactive: 0.153
ATCGGCAT | inactive: -0.0158
CACTCTTC | inactive: 0.0141
CCATAGCC | inactive: -0.129
CAGCCCCG | inactive: -0.153
CCGGCCGA | inactive: -0.281
TAGCGTCA | ≥ 0.0181
CATGTTAC | active: 0.42

Sequence | PBM E-score
GTAGCAAA | inactive: 0.0804
CAGTTGCA | inactive: 0.0245
AAGCTAGA | inactive: -0.0459
CGCACCTC | inactive: -0.169
GGAAGATA | inactive: 0.0393
ACCCTCAC | inactive: -0.101
AAACCAGG | inactive: 0.0544
GATTTCCA | inactive: -0.0029
ATAGCTGA | inactive: 0.00141
GAGTGGAC | inactive: -0.0327
GCGATGAC | inactive: 0.0191
CCGTGATA | inactive: -0.0342
AAAATGTG | inactive: 0.0604
TCACCCCA | inactive: -0.00423
AGTATGAC | inactive: 0.112
AATATCCA | inactive: 0.092
CACCCCAG | inactive: -0.155
CCGTCAAC | inactive: -0.0657
AATCCACA | inactive: 0.0486
AGGTTGGG | inactive: -0.0501
AACCCACG | inactive: -0.0225
GTCGTGTA | active: 0.386
ATATAGAT | inactive: 0.143
AAGGCACG | inactive: -0.0938
AAGTAAGA | inactive: -0.0164

Sequence | PBM E-score
GGGGGATA | inactive: -0.172
GCGCTACA | inactive: 0.073
AAATTCCC | inactive: -0.0534
AATGGCGT | inactive: -0.0327
AAATGTCC | inactive: 0.126
GCTAACGA | inactive: -0.0255
CATAAATG | inactive: 0.111
AACTTACA | active: ≥ 0.344
CATCTTTC | inactive: 0.113
ACACCCAT | inactive: 0.115
GGCCAGGA | inactive: -0.22
CGTGTCCC | inactive: 0.149
GACAGGAC | inactive: 0.0631
ACTCATCG | inactive: 0.0315
ACTCTGAC | inactive: 0.0493
GGCCTAGA | inactive: -0.155
AGGTAGTC | inactive: -0.00078
AGCCAGAC | inactive: -0.0522
GCATTGAA | inactive: -0.0209
GTAGCGAC | inactive: -0.0304
CGTAAAAC | inactive: -0.0282
GTAGCCTA | inactive: 0.0282
CGACATTA | inactive: 0.202
CCCCCAGG | inactive: -0.299
